Experimental findings from ChEMBL document CHEMBL4888484, “Replenishing the malaria drug discovery pipeline: Screening and hit evaluation of the MMV Hit Generation Library 1 (HGL1) against asexual blood stage Plasmodium falciparum ,using a nano luciferase reporter read-out” (2022) are described below.

As a reminder, the % Inhibition is the relative decrease from the control value, in per cent.

The whole screen tested about 150,000 compounds, of which about 540 (0.36%) showed an effect of 50% or more. This is one part of the list.

In the assay the test system is Plasmodium falciparum. Put plainly: Primary screen in NF54 nanoGlo assay, in single point, at 2uM, 72h; a lower Z score goes with more inhibition. Type of assay: functional, Erythrocyte. The note with it: timepoint 72 hour.
For `Cc1ccc(NC(=O)N2[C@@H]3CC[C@H]2CC(NC(=O)c2ccc(F)cc2)C3)c(C)c1` (some centres undefined), the “% Inhibition” value was -13% and the Z score was determined as 2.54.

Take `CC(=O)N1CCC(Nc2nc3ccccc3s2)CC1`: the “% Inhibition” value is given as 3% and the Z score is reported as -0.37.

Consider `O=C(NCc1ccc(Cn2ccnc2)cc1)c1ccccc1OCc1cn2ccccc2n1`, for which the “% Inhibition” value is given as -13% and the Z score is given as 2.41.

On to `Cc1ccc(Nc2nc(N)nc(COC(=O)c3cnccn3)n2)cc1`, for which the “% Inhibition” value is -7% and the Z score is 1.55.

As to `Cc1ncc(S(=O)(=O)N2CC3(CCC3)c3c(F)cccc32)cc1C#N`, the “% Inhibition” value is on record as -7% and the Z score turned out to be 0.89.

For `O=C(c1ccccn1)c1cccc(Br)c1F`, the “% Inhibition” value was -9% and the Z score was 1.22.

On to `Cc1ccc(CN2C(=O)C3CCCCC3C2=O)cc1S(=O)(=O)NCc1cccs1` (centres undefined), for which the “% Inhibition” value is on record as -3% and the Z score worked out at 0.46.

With `O=C1Cc2cc(C(=O)N3CCN(c4ncccn4)CC3)ccc2N1`, the “% Inhibition” value is on record as -6% and the Z score is recorded as 1.03.

As to `CC1CCN(C(=O)CCS(=O)(=O)C2CCCC2)CC1`, the “% Inhibition” value is -4% and the Z score is recorded as 0.56.

Turning to `O=S(=O)([C@H]1C[C@@H]1c1ccccc1)N1CCC(c2nnc3n2CCCC3)CC1`, the “% Inhibition” value is -8% and the Z score came to 1.59.

With `N#Cc1cccc(C(=O)Nc2cc(S(=O)(=O)N3CCOCC3)ccc2Oc2ccc(F)cc2)c1`, the “% Inhibition” value is -12% and the Z score is listed as 2.

Take `CCCc1nnsc1C(=O)N1CCn2nc([C@@H](O)CN(C)C)cc2C1`: the “% Inhibition” value is on record as 0% and the Z score is given as -0.03.

For `O=C(Nc1ccc(F)c(Cl)c1)c1oc2ccccc2c1NC(=O)C1CCCC1`, the “% Inhibition” value was -5% and the Z score stood at 0.98.

As for `Cc1cccc(CNc2nc(-c3ccccc3)no2)c1`, the “% Inhibition” value is -12% and the Z score is 1.47.

As to `O=C(Nc1nc2c(s1)CN(C(=O)c1cc(C3CC3)on1)CC2)C1CCC1`, the “% Inhibition” value was -7% and the Z score was determined as 0.9.

In the case of `Cn1ccnc1CN1CC[C@@]2(CCCN(CC3CC3)C2=O)C1`, the “% Inhibition” value is on record as -28% and the Z score is recorded as 2.95.

Take `CCn1nc([C@H]2CCOC2)nc1-c1cc(C#N)cn1C`: the “% Inhibition” value is -12% and the Z score came to 2.42.

Regarding `Cc1nnsc1CN1C(=O)COc2cccnc21`, the “% Inhibition” value is -1% and the Z score is reported as 0.28.

Take `CC1CN(C(=O)c2ccc(Cl)cc2O)CC(C2CC2)O1` (centres undefined): the “% Inhibition” value is recorded as 1% and the Z score is -0.16.

Take `O=S(=O)(NC1CCCCCC1)c1ccc2c(c1)OCCCO2`: the “% Inhibition” value came to 13% and the Z score was -1.5.

`CCc1nc(CCn2cncn2)n(CC(F)(F)F)n1`: the “% Inhibition” value is on record as -13% and the Z score was determined as 1.66.

Take `O[C@@H]1Cc2ccccc2[C@H]1c1ccc2oc(C3CC3)nc2c1`: the “% Inhibition” value is -5% and the Z score stood at 0.46.

For `CCOc1cccc(CN2CCOc3ccc(CN4CCC(O)(c5cccnc5)CC4)cc3C2)c1`, the “% Inhibition” value was 7% and the Z score was -1.13.

Regarding `O=C(c1csc(-c2cccs2)n1)N1CCC1`, the “% Inhibition” value is reported as 13% and the Z score is -1.48.

On to `CCN(CC)c1cc(-c2ccccc2)nc(-c2ccccc2)n1`, for which the “% Inhibition” value is listed as -4% and the Z score is reported as 0.48.

With `OCc1ccccc1OCc1csc([C@@H]2CCCO2)n1`, the “% Inhibition” value was -4% and the Z score was determined as 0.46.

On to `O=C(NCc1cccc(Cl)c1O)NC[C@H]1CC12CCOCC2`, for which the “% Inhibition” value is -16% and the Z score is 1.79.

For the molecule `O=C(OCc1ccccc1)N1CCc2n[nH]c(=O)cc2C1`, the “% Inhibition” value is listed as -12% and the Z score is recorded as 2.05.

Turning to `CN(c1ncc(F)cc1F)S(=O)(=O)c1ccc2c(c1)CCO2`, the “% Inhibition” value was -10% and the Z score was 1.96.

As to `Cc1ccc(C)c2c1CC(C)(C)NC2=O`, the “% Inhibition” value was determined as 2% and the Z score is -0.28.

Turning to `CC1CN(C(=O)C2CCN(C(=O)Nc3cccnc3)CC2)CC(C)O1` (centres undefined), the “% Inhibition” value was -6% and the Z score was 1.16.

Regarding `COC(=O)[C@@H]1CCCN1C(=O)c1coc(COc2cccc(C(F)(F)F)c2)n1`, the “% Inhibition” value is -13% and the Z score is listed as 1.18.

Turning to `c1coc(-c2noc(CN3CCCCCC3)n2)c1`, the “% Inhibition” value is -12% and the Z score is 1.91.

Regarding `Cc1ccc(C2CCCCCN2CC(=O)N2CCCC(C)C2)o1` (centres undefined), the “% Inhibition” value was 0% and the Z score is listed as -0.04.

With `O=C(Nc1ccc(-c2cc(NC(=O)c3ccccc3)n(C(=O)c3ccccc3)n2)cc1)c1ccccc1`, the “% Inhibition” value is on record as -6% and the Z score came out at 0.83.

Consider `COc1cccnc1N(C)C(=O)C1CC12CCc1ccccc12` (centres undefined), for which the “% Inhibition” value is given as -1% and the Z score turned out to be 0.14.

Take `Cc1cc(-c2noc(CC(=O)NCC3CC3)n2)cc2nc[nH]c12`: the “% Inhibition” value is reported as 8% and the Z score is -1.39.

Consider `CC(C)COc1ccccc1NCC[C@H]1CCCO1`, for which the “% Inhibition” value is on record as -13% and the Z score turned out to be 1.77.

As to `CC/C=C(\C)CN1CC[C@H](CNC(=O)c2occc2C)C1`, the “% Inhibition” value was -10% and the Z score stood at 1.09.

As for `O=C(NC(c1ccccc1)c1ccccc1)N1CC[C@H](Oc2ccncc2Cl)C1`, the “% Inhibition” value worked out at 14% and the Z score is reported as -2.6.

Consider `O=C(O)c1cnc(-c2ccccc2)nc1C=Cc1csnn1`, for which the “% Inhibition” value is listed as -5% and the Z score amounted to 0.83.

Turning to `CN(C)c1ncccc1CNCc1cc2c(cc1Cl)OCO2`, the “% Inhibition” value is given as -4% and the Z score is listed as 0.69.
